Measurements taken from the supplement of paper PMC3334620.
Over roughly 33,000 sequences, “E-score (-0.5 to 0.5)” has its median near -0.017; the highest 2% begin near 0.3. The list shows a part of the results.

The sequences below were run against T1, Sut1 (UniProt P53032) (assay: PBM E-score (8-mer binding enrichment) (E-score (-0.5 to 0.5)); higher = stronger / more preferred TF binding; most listed sequences are background and not binding sites). Settings: protein concentration: 200 nM; construct: GST-full length.
T1 sequence: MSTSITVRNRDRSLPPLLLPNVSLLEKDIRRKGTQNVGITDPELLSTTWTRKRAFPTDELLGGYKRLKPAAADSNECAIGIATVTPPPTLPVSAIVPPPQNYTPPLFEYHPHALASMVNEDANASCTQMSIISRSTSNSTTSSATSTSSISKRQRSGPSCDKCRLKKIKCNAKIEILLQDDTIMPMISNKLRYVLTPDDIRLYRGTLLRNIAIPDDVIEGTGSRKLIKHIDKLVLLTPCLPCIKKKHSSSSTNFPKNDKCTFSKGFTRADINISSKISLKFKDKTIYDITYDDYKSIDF
Procedure, shortened: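 Yeast transcription factors carrying a GST tag, as full-length proteins or DNA-binding domains, were produced by PURExpress in vitro transcription/translation. About 100-200 nM protein was applied to universal all-10-mer Agilent arrays, double-stranded by primer extension on fresh or once-stripped slides. Bound protein was detected with fluorescent anti-GST, and scans were normalised with masliner. The Universal PBM Analysis Suite gave each ungapped eight-base word, pooled with its reverse complement, an E-score, a modified Wilcoxon-Mann-Whitney statistic.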

Sequence	PBM E-score
ATTACGGG	-0.0151
AGTTGTAT	0.141
GAATATGC	0.0981
GCAAGCCA	-0.285
TAAGATCA	0.0673
GATACGGA	0.364
CTACGGAC	0.169
ATTGGCAC	-0.147
GAGCGTTA	0.00231
AGATCGCT	-0.0499
ATTCAAAT	0.228
CTCGCTAA	-0.151
AAAAACAG	0.0942
AGGCAAAT	-0.014
GACTTGCA	0.109
AGCAATAA	0.0469
AACGGAAC	0.27
TCGACCCA	0.101
ATGCATGC	0.0631
AGGCGAGG	-0.289
ACAAACTG	-0.106
ATGTTATC	0.192

Sequence	PBM E-score
CGGGAAGA	0.138
GCCAGACA	0.102
AGTGCTGG	-0.0738
CTACTGAC	-0.21
ATACCGGG	0.0371
GGTGTCAC	-0.101
AGAACTAT	0.225
TGTATCAA	0.134
ACCCGAGC	0.0954
ATTCTCTG	-0.16
CGCCTCCG	0.0957
AGTTATCA	0.218
GAGCTATA	-0.106
CGTGGAGA	-0.184
ATGAGCGG	-0.211
GGCTTAAC	0.153
ACGATTCG	0.0762
GAGGCAAC	-0.175
GTTGGTAA	0.201
ACGTCCAA	-0.0482
CGCTGCTA	-0.0657
TCCACCGA	-0.03

Sequence	PBM E-score
AAGGGATG	-0.0899
GCTTATAC	-0.0717
TCTGGAAA	-0.00485
AGAGAGTA	-0.0447
CCCAGGTA	-0.221
CAATGGGC	-0.172
CCCCTCGA	-0.146
CGCGATAG	0.0227
ATCGTACG	0.0424
AACAGCCC	-0.0864
GAGAACTC	0.0403
AAACGCAC	-0.0256
AGTGCCTC	-0.245
AATTAATC	0.257
GTTGCAAA	0.189
AATAGCCA	0.0202
CTCCGCGC	0.327
AGGGTCTC	-0.194
CTGCATGC	-0.194
GACACTAA	-0.0944
AAGATCAA	0.0587
CCGACTAA	0.178

Sequence	PBM E-score
ATCTATGC	-0.00446
TCTCGTCA	-0.0155
GATCTCAC	-0.0534
ACTCACTG	0.0451
AAGTGTAA	0.0603
CAACGGCC	-0.142
AACAACAA	0.138
CGTGTGCA	-0.241
AAACGCGC	-0.123
CAAGTGGG	-0.173
CACCCGTC	-0.193
ACAGGTAG	-0.207
AGCAAGGA	-0.134
AGCCATTG	0.054
AAAGTCAT	0.00174
AGGACTAA	0.155
CACGAGGG	-0.33
GAGCGGAA	0.149
AATGTGAC	0.0297
AGATCCAC	0.103
